The list shows a part of the results.
How the values were obtained:
Assay in all cases: glycan array binding signal (z-score within array); higher = stronger binding
Details in all cases: glycan notation: IUPAC condensed, linker removed
[1] = target: Neu5Ac(a2-6)GlcNAc(b1-4)GlcNAc
In short: (§1)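 Columns mapping to the same glycan were averaged after glycan names were converted to IUPAC-condensed notation. The data come from 3228 arrays in the Consortium for Functional Glycomics database, limited to those with an available protein sequence. Binding is reported as a within-array Z-score averaged across arrays of one protein sequence and across linkers.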

[2] = target: Neu5Ac(a2-6)GlcNAc(b1-4)GlcNAc(b1-4)GlcNAc
In short: as §1

Neu5Ac(a2-8)Neu5Ac = target: Neu5Ac(a2-8)Neu5Ac
In short: as §1

[3] = target: Neu5Ac(a2-8)Neu5Ac(a2-3)Gal(b1-3)GalNAc(b1-4)[Neu5Ac(a2-3)]Gal(b1-4)Glc
In short: as §1

[4] = target: Neu5Ac(a2-8)Neu5Ac(a2-3)Gal(b1-3)GalNAc(b1-4)[Neu5Ac(a2-8)Neu5Ac(a2-3)]Gal(b1-4)Glc
In short: as §1

[5] = target: Neu5Ac(a2-8)Neu5Ac(a2-3)Gal(b1-4)Glc
In short: as §1

[6] = target: Neu5Ac(a2-8)Neu5Ac(a2-3)Gal(b1-4)GlcNAc
In short: as §1

[7] = target: Neu5Ac(a2-8)Neu5Ac(a2-3)[Gal(b1-3)GalNAc(b1-4)]Gal(b1-4)Glc
In short: as §1

[8] = target: Neu5Ac(a2-8)Neu5Ac(a2-3)[GalNAc(b1-4)]Gal(b1-4)Glc
In short: as §1

[9] = target: Neu5Ac(a2-8)Neu5Ac(a2-8)Neu5Ac
In short: as §1

[10] = target: Neu5Ac(a2-8)Neu5Ac(a2-8)Neu5Ac(a2-3)Gal(b1-4)Glc
In short: as §1

[11] = target: Neu5Ac(a2-8)Neu5Ac(a2-8)Neu5Ac(a2-3)[Gal(b1-3)GalNAc(b1-4)]Gal(b1-4)Glc
In short: as §1

[12] = target: Neu5Ac(a2-8)Neu5Ac(a2-8)Neu5Ac(a2-3)[GalNAc(b1-4)]Gal(b1-4)Glc
In short: as §1

[13] = target: Neu5Ac(a2-8)Neu5Ac(a2-8)Neu5Ac(a2-8)Neu5Ac(a2-3)[GalNAc(b1-4)]Gal(b1-4)Glc
In short: as §1

[14] = target: Neu5Ac(a2-8)Neu5Gc(a2-3)Gal(b1-4)GlcNAc
In short: as §1

[15] = target: Neu5Ac(b2-6)Gal(b1-4)GlcNAc
In short: as §1

Neu5Ac(b2-6)GalNAc = target: Neu5Ac(b2-6)GalNAc
In short: as §1

[16] = target: Neu5Ac9Ac(a2-3)Gal(b1-3)GlcNAc
In short: as §1

[17] = target: Neu5Ac9Ac(a2-3)Gal(b1-4)GlcNAc
In short: as §1

[18] = target: Neu5Ac9Ac(a2-6)Gal(b1-4)GlcNAc
In short: as §1

[19] = target: Neu5Gc(a2-3)Gal(b1-3)GlcNAc
In short: as §1

[20] = target: Neu5Gc(a2-3)Gal(b1-3)[Fuc(a1-4)]GlcNAc
In short: as §1

Neu5Gc(a2-3)Gal(b1-4)Glc = target: Neu5Gc(a2-3)Gal(b1-4)Glc
In short: as §1

[21] = target: Neu5Gc(a2-3)Gal(b1-4)GlcNAc
In short: as §1

[22] = target: Neu5Gc(a2-3)Gal(b1-4)GlcNAc(b1-3)Gal(b1-4)GlcNAc(b1-2)Man(a1-3)[Neu5Gc(a2-3)Gal(b1-4)GlcNAc(b1-3)Gal(b1-4)GlcNAc(b1-2)Man(a1-6)]Man(b1-4)GlcNAc(b1-4)GlcNAc
In short: as §1

[23] = target: Neu5Gc(a2-3)Gal(b1-4)[Fuc(a1-3)]GlcNAc
In short: as §1

[24] = target: Neu5Gc(a2-6)Gal(b1-4)GlcNAc
In short: as §1

Neu5Gc(a2-6)GalNAc = target: Neu5Gc(a2-6)GalNAc
In short: as §1

[25] = target: Neu5Gc(a2-8)Neu5Ac(a2-3)Gal(b1-4)GlcNAc
In short: as §1

[26] = target: Neu5Gc(a2-8)Neu5Gc(a2-3)Gal(b1-4)GlcNAc
In short: as §1

[27] = target: Neu5Gc(a2-8)Neu5Gc(a2-3)Gal(b1-4)GlcNAc(b1-3)Gal(b1-4)GlcNAc
In short: as §1

[28] = target: Neu5Gc(a2-8)Neu5Gc(a2-6)Gal(b1-4)GlcNAc
In short: as §1

[29] = target: Neu5Gc(b2-6)Gal(b1-4)GlcNAc
In short: as §1

B1: DrGal9 (Danio rerio) (protein)
chain: MAFYQQPPYYNPRIPFSGPIQGGLQDGKSIIISGRVLPGANRFHVNLQCGSHSEANVALHFNPRYEDTDYVVNNSYLNRTWGSEERKYESPFAQGQTFTLQILVAQDKYKISTNGRHFMDYKHRIPFTQVDTVAVEGMVEVNSVAFQNPAGFIPPQAGYAPQYAVPPGCGFPAFPSAPNYTIPHKTVMNGGLHPGKNIVINGVVNPNAKSIIFNLCYRSGIAFHYNPRFDENVVVRNTNQMEKWGAEERFGGLPFHKGQPFQVTISCNPQHYNVFVNGKQEHTYKHRYTKLNDIDILEICGDLQLTSVQA
Question: For B1, which “glycan array binding signal (z-score)” value [1] is on record?
Answer: The value was -0.357.

Question: And the “glycan array binding signal (z-score)” value [2]?
Answer: The value was -0.385.

Question: What about the “glycan array binding signal (z-score)” value (Neu5Ac(a2-8)Neu5Ac) of the same binder?
Answer: The value was -0.399.

Question: And the “glycan array binding signal (z-score)” value [3]?
Answer: The value was -0.398.

Question: And the “glycan array binding signal (z-score)” value [4]?
Answer: Its value is 0.017.

Question: And the “glycan array binding signal (z-score)” value [5]?
Answer: Its value is -0.374.

Question: And the “glycan array binding signal (z-score)” value [6]?
Answer: Its value is -0.152.

Question: What about the “glycan array binding signal (z-score)” value [7] of the same binder?
Answer: Its value is -0.326.

Question: And the “glycan array binding signal (z-score)” value [8]?
Answer: Its value is -0.393.

Question: And the “glycan array binding signal (z-score)” value [9]?
Answer: The value was -0.392.

Question: And the “glycan array binding signal (z-score)” value [10]?
Answer: The value was -0.362.

Question: And the “glycan array binding signal (z-score)” value [11]?
Answer: Its value is -0.404.

Question: And the “glycan array binding signal (z-score)” value [12]?
Answer: Its value is -0.388.

Question: What about the “glycan array binding signal (z-score)” value [13] of the same binder?
Answer: The value was -0.417.

Question: And the “glycan array binding signal (z-score)” value [14]?
Answer: Its value is -0.251.

Question: And the “glycan array binding signal (z-score)” value [15]?
Answer: Its value is -0.398.

Question: And the “glycan array binding signal (z-score)” value (Neu5Ac(b2-6)GalNAc)?
Answer: The value was -0.403.

Question: And the “glycan array binding signal (z-score)” value [16]?
Answer: The value was -0.093.

Question: And the “glycan array binding signal (z-score)” value [17]?
Answer: Its value is -0.244.

Question: What about the “glycan array binding signal (z-score)” value [18] of the same binder?
Answer: Its value is -0.379.

Question: What about the “glycan array binding signal (z-score)” value [19] of the same binder?
Answer: Its value is -0.32.

Question: What about the “glycan array binding signal (z-score)” value [20] of the same binder?
Answer: Its value is -0.383.

Question: What about the “glycan array binding signal (z-score)” value (Neu5Gc(a2-3)Gal(b1-4)Glc) of the same binder?
Answer: The value was -0.343.

Question: And the “glycan array binding signal (z-score)” value [21]?
Answer: Its value is -0.233.

Question: What about the “glycan array binding signal (z-score)” value [22] of the same binder?
Answer: Its value is 0.69.

Question: And the “glycan array binding signal (z-score)” value [23]?
Answer: The value was -0.351.

Question: What about the “glycan array binding signal (z-score)” value [24] of the same binder?
Answer: Its value is -0.336.

Question: What about the “glycan array binding signal (z-score)” value (Neu5Gc(a2-6)GalNAc) of the same binder?
Answer: Its value is -0.407.

Question: And the “glycan array binding signal (z-score)” value [25]?
Answer: The value was -0.305.

Question: And the “glycan array binding signal (z-score)” value [26]?
Answer: Its value is -0.224.

Question: What about the “glycan array binding signal (z-score)” value [27] of the same binder?
Answer: Its value is -0.161.

Question: What about the “glycan array binding signal (z-score)” value [28] of the same binder?
Answer: Its value is -0.399.

Question: And the “glycan array binding signal (z-score)” value [29]?
Answer: Its value is -0.411.
